# According to PubChem BioAssay AID1346428 (National Center for Advancing Translational Sciences (NCATS), 2018):
# Where “and” joins values, the source holds several entries; their conditions need not be identical. Equal values may be shown once. Out of some 48,000 compounds screened, about 1,200 (2.5%) were called active. Not shown: some 2% with an inconclusive outcome.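 The calls were made as follows: active = activation of at least 60% and not above a set upper limit (about 1 call in 100 departs from these limits); inconclusive = activation of 40% to 60%, or above that upper limit; inactive = activation under 40%.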 Some of the results follow.
# Target: Probable G-protein coupled receptor 32 (Homo sapiens) (UniProt O75388)
# UniProt O75388, sequence (O75388 whole entry, looked up): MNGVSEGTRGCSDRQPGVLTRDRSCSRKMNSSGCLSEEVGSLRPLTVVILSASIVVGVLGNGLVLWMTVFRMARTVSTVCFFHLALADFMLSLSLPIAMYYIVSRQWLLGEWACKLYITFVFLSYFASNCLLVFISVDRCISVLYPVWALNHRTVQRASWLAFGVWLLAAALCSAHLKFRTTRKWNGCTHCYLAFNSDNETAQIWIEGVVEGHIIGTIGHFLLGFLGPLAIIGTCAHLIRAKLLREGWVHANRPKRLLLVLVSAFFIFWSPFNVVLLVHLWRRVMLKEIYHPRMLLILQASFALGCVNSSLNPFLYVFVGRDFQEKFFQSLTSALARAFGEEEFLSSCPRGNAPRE
# Assay: qHTS for Agonists of Human Resolvin D1 Receptor DRV1; also: 0% is about no effect
# Conditions: CHO-K1 GPR32 beta-arrestin PathHunter luminescence, 90 min; at 76.9 µM; stronger effect = higher value; zero percent set by DMSO-only wells
# Method in brief: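 Engineered CHO-K1 line co-expressing GPR32-ProLink and EA-beta-arrestin. Compound treatment lasted 90 min at 37 °C. Luminescence was recorded after 1 h with substrate at ambient temperature, relative to DMSO basal wells.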
row,SMILES,activation
1,CCN1CCN(c2cc(C)c3cc(NC(=O)c4cccc(Cl)c4)ccc3n2)CC1,inactive: -16.6%
2,O=C(Oc1ccccc1Cl)c1cc(-c2ccc3c(c2)OCCO3)on1,inactive: 2.04%
3,Cc1ccc(NC(=O)c2cnc(N3CCCCC3)c3ccccc23)cc1Cl,inactive: -23.5%
4,Cc1ccc(OCCn2cc(C(=O)c3ccco3)c3ccccc32)cc1C,inactive: -12.1%
5,Cc1n[nH]c(C)c1CCc1nc2c3ccccc3nc(SCC(=O)Nc3ccc(F)cc3)n2n1,active: 72%
6,COC(=O)c1scc(-c2ccc(C)cc2)c1S(=O)(=O)Nc1cccc(Cl)c1C,inactive: -15.6%
7,COc1cccc(N2CCN(C(=O)C3CCN(S(=O)(=O)c4cn(C)cn4)CC3)CC2)c1,inactive: 1.61%
8,CCOCCn1c(=O)c2c(nc3n2CCN3c2ccc(C)c(C)c2)n(C)c1=O,inactive: -11.4%
9,CC1CCCCN1C(=O)CSc1c2c(nc3cc(Cl)ccc13)CCCC2 (stereo unspecified),inactive: -19.2%
10,Cc1cc2c(cc1S(=O)(=O)NCc1ccccc1Cl)OCC(=O)N2,inactive: 3.26%
11,Cc1ccc(-n2ncc3c(Nc4cccc(C(F)(F)F)c4)ncnc32)cc1C,active: 93.7%
12,COc1cccc(-c2nc(CS(=O)(=O)CC(=O)NCCc3ccc(Cl)cc3)c(C)o2)c1,inactive: 2.42%
13,Cc1cc(C)cc(NC(=O)COCc2cc(-c3ccc4c(c3)OCO4)on2)c1,inactive: -17.1%
14,COc1ccc(OC)c(NC(=O)Cn2cnc3onc(-c4ccc(Cl)cc4)c3c2=O)c1,inactive: 49.2%
15,COc1ccc(NC(=O)CN(C)S(=O)(=O)c2ccc3c(c2)c(=O)n(C)c(=O)n3C)cc1,inactive: 2.74%
16,NS(=O)(=O)c1ccc(NC(=O)c2csnn2)cc1,inactive: 2.58%
17,CC(C)c1ccc(NC(=O)c2cnc3sc(N4CCOCC4)nn3c2=O)cc1,inactive: -6.97%
18,Cc1ccc(C(=O)NCC(c2ccco2)S(=O)(=O)c2ccc(Cl)cc2)cc1C (stereo unspecified),inactive: -9.5%
19,CCCCNC(=O)c1cn(C)c2ccc(S(=O)(=O)N3CCCC3)cc2c1=O,inactive: -2.75%
20,COc1ccc(OCC2c3cc(OC)c(OC)cc3CCN2C(=O)c2c(F)cccc2F)cc1 (stereo unspecified),inactive: -2.6%
21,COc1ccc(-c2nc3ccc(Cl)cn3c2Nc2ccc(C)cc2)cc1,inactive: -5.61%
22,CCc1ccc(-n2nc(CO)c(C(=O)NCc3cccs3)n2)cc1,inactive: -5.59%

row,SMILES,activation
1,COc1cc(OC)c(NC(=O)Cn2cnc3sc(C)c(S(=O)(=O)N4CCC(C)CC4)c3c2=O)cc1Cl,inactive: 2.98%
2,COc1ccc(N2CC(NC(=O)C(=O)c3c(C)[nH]c4ccccc34)CC2=O)cc1 (stereo unspecified),inactive: -17.6%
3,Cc1ccc(NC(=O)CCn2c(=O)c3cccn3c3ccccc32)cc1Cl,inactive: -23.4%
4,O=C(CSc1nc(=O)n(Cc2ccco2)c2c1CCC2)NCc1ccc(Cl)cc1,inactive: -1.69%
5,Cc1cc(NC(=O)Nc2nnc(N3CCCCC3)s2)ccc1Br,inactive: 5.79%
6,Cc1ccc(C(=O)N2CCN(Cc3cc(=O)n4nc(-c5ccccc5)sc4n3)CC2)cc1,inactive: -0.346%
7,Cc1cc(C)c2nc(N(Cc3cccnc3)C(=O)Cc3ccccc3)sc2c1,inactive: -0.0918%
8,Cc1cc(C)n(-c2nc3ccccc3nc2Nc2cc(Cl)ccc2C)n1,inactive: -5.33%
9,COc1ccccc1CNC(=O)CSc1nc(=O)[nH]c2c1CCCC2,inactive: -9.47%
10,CCN(Cc1ccccc1)C(=O)Cn1c(=O)n(-c2ccc(Cl)c(Cl)c2)c(=O)c2c(C)c(C(=O)N(C)C)sc21,inactive: -14.3%
11,Cc1ccc(-c2ccc(CCC(=O)O)n2-c2cccc(C)c2C)cc1,inactive: 4.89%
12,COc1ccc(NC(=O)c2c(C)oc3ccc(O)c(CN4CCCCCC4)c23)cc1,inactive: 24.5%
13,Cc1ccc(C)c(N2CCN(C(=O)CN3C(=O)COc4ccc(S(=O)(=O)N5CCC(C)CC5)cc43)CC2)c1,inactive: -19.1%
14,CCOc1ccc(Br)cc1S(=O)(=O)Nc1cccc(-c2ccc(OC)nn2)c1,inactive: 9.94%
15,O=c1[nH]c(=O)n([C@H]2C[C@H](O)[C@@H](CO)O2)cc1Br,inactive: -4.65% and inactive: 7.58%
16,Cc1ccc(N2CCN(S(=O)(=O)c3ccc(-n4cnnn4)cc3)CC2)c(C)c1,inactive: -4.48%
17,COc1ccc(-n2c(=O)c3c4c(sc3n(Cc3ccc(C(C)(C)C)cc3)c2=O)CCC4)c(OC)c1,inactive: 26.2%
18,CCn1nnc2cc(C(=O)Nc3ccc(OC)cc3)ccc21,inactive: 34.9%
19,Cc1ccc(Cl)cc1N1CCN(C(=O)c2ccc3c(c2)N(Cc2ccccc2)CCS3)CC1,inactive: -8.12%
20,Cc1[nH]cnc1-c1ccc(Cl)cc1,inactive: 22.3%
21,Cc1cn2c(=O)cc(COC(=O)c3ccc(NC(=O)C(C)Oc4ccccc4)cc3)nc2s1 (stereo unspecified),inactive: -10.9%
22,CCOCCCNC(=O)c1c(NC(=O)c2nc(SC)ncc2Cl)sc2c1CCCC2,inactive: -13.9%

row,SMILES,activation
1,COc1cc(NC(C)CCCN)c2ncccc2c1 (stereo unspecified),inactive: 9.48%
2,COc1ccc(CCNC(=O)c2cc(=O)[nH]c3ccc(S(=O)(=O)N4CCCCC4C)cc23)cc1OC (stereo unspecified),inactive: -15.4%
3,CCOC(=O)c1c(N)n(-c2cc(C)cc(C)c2)c2nc3ccccc3nc12,inactive: -6.05%
4,COc1cccc(NC(=O)Cc2csc(COc3cccc(C)c3)n2)c1,inactive: -9.8%
5,Fc1ccc(Nc2c(-c3ccccn3)nc3ccc(Cl)cn23)cc1,inactive: -26.5%
6,O=C(Nc1cc(Cl)cc(Cl)c1)c1cc(S(=O)(=O)N2CCC3(CC2)OCCO3)ccc1F,inactive: -22.8%
7,O=C(NCCc1ccccc1)c1nn(-c2ccccc2Cl)nc1CO,inactive: -8.11%
8,COc1ccc(OC)c(NC(=O)CCNC(=O)Cn2cnc3ccccc3c2=O)c1,inactive: 15.8%
9,Cc1ccc(C)c(-n2nnc(C(=O)Nc3ccc(Br)cc3)c2C)c1,inactive: 26%
10,CCCCC1(COC(=O)CCC(=O)O)C(=O)N(c2ccccc2)N(c2ccccc2)C1=O,inactive: -2.69%
11,COCCn1c(C)cc(O)c(C(c2ccc(OC)cc2)N2CCN(c3ccccc3)CC2)c1=O (stereo unspecified),inactive: -9.11%
12,CCc1cccc(C)c1NC(=O)c1cnn(-c2ccc(OC)cc2)c1C1CCN(C(=O)OC(C)(C)C)CC1,inactive: -17.6%
13,COc1ccc(NC(=O)c2nc(-c3ccc(C)cc3)n3c2CCCCC3)c(OC)c1,inactive: 6.91%
14,CCOCCc1nn2c(=O)cc(COC(=O)c3ccc(NC(=O)C(C)(C)C)cc3)nc2s1,inactive: 12.6%
15,CCOC(=O)c1ccccc1NC(=O)c1cnc(N2CCOCC2)c2ccccc12,inactive: -23.4%
16,Cc1ccc(SCC(=O)Nc2ccc3oc(-c4ccccc4F)nc3c2)cc1,inactive: -9.21%
17,CCN(CC)c1nn2c(=O)c(C(=O)NCc3ccc(N(C)C)cc3)cnc2s1,inactive: -0.636%
18,COc1ccc(CNC(=O)Cn2c(-c3ccccc3)cc(C(C)=O)c2C)cc1OC,inactive: -10.6%
19,COc1ccc(N2CC(NC(=O)/C=C\c3ccccc3)CC2=O)cc1OC (stereo unspecified),inactive: 0.173%
20,Cc1nn(C)c(C)c1CCNC(=O)Nc1ccccc1C(F)(F)F,inactive: -5.05%
21,O=C(NCc1cccs1)c1ccc(CSc2nc3ccncc3n2Cc2ccccc2F)cc1,inactive: -9.52%
22,CN(Cc1ccco1)S(=O)(=O)c1nnc(NC(=O)c2ccccc2Cl)s1,inactive: 10.9%

row,SMILES,activation
1,CCC(=O)N1CCc2cc(S(=O)(=O)NC(C(=O)NCCc3cccc(C)c3)C(C)C)ccc21 (stereo unspecified),inactive: -4.79%
2,COc1cc(Cl)c(C)cc1Nc1nc2ccccc2n2cnnc12,inactive: 3.48%
3,COc1ccc(C(=O)CCC(=O)Nc2ccc(C)c(Cl)c2)cc1,inactive: -18.7%
4,CC1CCCN(CCCNC(=O)c2cc3c(Cl)nc4ccccc4c3s2)C1 (stereo unspecified),inactive: -2.55%
5,CCc1ccccc1N(C)C(=O)c1sc2nc3n(c(=O)c2c1C)CCCCC3,inactive: -4.14%
6,O=C(NCCc1csc(-c2ccc(F)cc2)n1)c1cccc(F)c1,active: 65.7%
7,Cc1ccc(C2c3[nH]c4ccccc4c3CCN2C(=O)CSCc2ccc(F)cc2)cc1 (stereo unspecified),inactive: -33.9%
8,COc1ccccc1CNC(=O)C1CCN(S(=O)(=O)c2cn(C)cn2)CC1,inactive: -4.58%
9,CCCCCn1c(=O)[nH]c2cc(C(=O)NC(C)CC)ccc2c1=O (stereo unspecified),inactive: 22.9%
10,COc1ccc(CCNC(=O)c2cc(=O)c3ccc(C)cc3o2)cc1OC,inactive: 1.07%
11,COCCn1c(=O)[nH]c2cc(C(=O)Nc3ccc(OC)cc3)ccc2c1=O,inactive: 10.5%
12,COc1ccc(C(=O)Nc2ccc3oc(-c4cccnc4)nc3c2)cc1OC,inactive: -23.7%
13,CCOc1ccc(CNC(=O)c2ccc3c(c2)nc2n3CCCCC2)cc1,inactive: -3.62%
14,CC(C)Oc1ccc(CNC(=O)C2CCN(Cc3cc4ccccc4n3Cc3ccccc3)CC2)cc1,inactive: -8.09%
15,Cc1ccc2c(c1)cc(C(=O)NCc1ccccc1C)n2C,inactive: 4.54%
16,CCc1cnc2c(c1SCC(=O)Nc1ccc(C(=O)OC)cc1)c(=O)n(C)c(=O)n2C,inactive: 1.36%
17,CCn1c2ccccc2c2cc(NC(=O)COc3cc(C)ccc3C)ccc21,inactive: 11.1%
18,Cc1cccc(Cn2c(COc3ccccc3)nc3ccccc32)c1,inactive: -56.1%
19,O=C(COC(=O)c1cccc(NC(=O)c2ccc(Br)cc2)c1)c1ccc(Cl)cc1,inactive: 26.3%
20,CC(C)(C)c1ccc(OCCOCCn2c(-c3ccc(Cl)cc3)nc3ccccc3c2=O)cc1,inactive: -7.55%
